Assay results published in publication PMC4336329 (PLoS ONE, 2015).
Out of some 310,000 compounds screened, about 2,200 (0.71%) showed an effect of 50% or more. The effect is printed as a negative number. The list shows a part of the results.

The molecules below were run against human ether-à-go-go-related gene (hERG) potassium channel (human, UniProt Q12809) (assay: primary screen, population patch clamp on CHO cells stably expressing hERG).
Sequence of human ether-à-go-go-related gene (hERG) potassium channel (Q12809 whole entry, looked up): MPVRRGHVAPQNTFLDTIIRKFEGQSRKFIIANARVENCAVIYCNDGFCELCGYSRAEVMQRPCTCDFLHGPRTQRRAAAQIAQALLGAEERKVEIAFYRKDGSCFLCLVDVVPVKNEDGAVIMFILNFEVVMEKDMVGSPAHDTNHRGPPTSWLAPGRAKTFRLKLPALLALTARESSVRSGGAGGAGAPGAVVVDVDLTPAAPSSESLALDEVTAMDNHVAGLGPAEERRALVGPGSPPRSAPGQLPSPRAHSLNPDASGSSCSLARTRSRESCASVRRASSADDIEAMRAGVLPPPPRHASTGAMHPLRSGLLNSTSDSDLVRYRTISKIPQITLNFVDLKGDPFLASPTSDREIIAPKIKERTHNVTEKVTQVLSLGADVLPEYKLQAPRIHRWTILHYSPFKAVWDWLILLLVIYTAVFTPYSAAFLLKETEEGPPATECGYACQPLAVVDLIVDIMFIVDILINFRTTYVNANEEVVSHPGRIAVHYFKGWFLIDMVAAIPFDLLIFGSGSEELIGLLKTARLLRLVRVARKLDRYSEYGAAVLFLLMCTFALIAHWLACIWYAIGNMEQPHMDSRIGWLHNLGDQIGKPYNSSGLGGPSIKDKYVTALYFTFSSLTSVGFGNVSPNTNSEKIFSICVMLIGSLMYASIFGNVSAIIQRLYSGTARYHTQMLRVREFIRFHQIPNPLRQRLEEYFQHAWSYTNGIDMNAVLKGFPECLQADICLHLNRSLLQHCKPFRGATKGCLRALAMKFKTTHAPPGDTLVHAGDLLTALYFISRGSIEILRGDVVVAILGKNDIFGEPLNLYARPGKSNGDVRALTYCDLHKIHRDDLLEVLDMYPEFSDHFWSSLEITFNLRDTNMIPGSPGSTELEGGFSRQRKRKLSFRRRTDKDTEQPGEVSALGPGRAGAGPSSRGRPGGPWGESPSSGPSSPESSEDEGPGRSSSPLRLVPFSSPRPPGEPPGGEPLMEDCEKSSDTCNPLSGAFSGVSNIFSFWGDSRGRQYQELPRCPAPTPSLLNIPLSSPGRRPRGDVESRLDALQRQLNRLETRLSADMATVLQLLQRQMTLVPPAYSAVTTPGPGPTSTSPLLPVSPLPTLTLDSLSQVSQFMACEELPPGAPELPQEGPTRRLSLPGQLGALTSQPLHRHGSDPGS

| SMILES | hERG current change (%, negative = inhibition) at 1uM [%] |
| --- | --- |
| O=S(=O)(c1cccc(C(F)(F)F)c1)N1CCN(c2cnccn2)CC1 | -1.19 |
| Cc1cc(C(=O)OCC(=O)Nc2ccccc2Cl)c(C)o1 | 8.72 |
| COCC(C)NC(=O)/C(=C/c1ccccc1)c1ccccc1 (stereo not drawn) | -9.73 |
| CCOC(=O)c1sc(=S)n(CC)c1N | 10.5 |
| CCCCCCn1c(N)c(C(=O)NCCN2CCOCC2)c2nc3ccccc3nc21 | 9.09 |
| CC(C)CC(=O)N1CCC(N(CCc2ccccc2)Cc2ccccc2)CC1.O=C(O)C(=O)O | 7.09 |
| Nc1nc(SCc2cccc([N+](=O)[O-])c2)n[nH]1 | 9.78 |
| COc1ccc(NC(=O)C2CCN(C(=O)Cc3ccccc3)CC2)c(OC)c1 | 22.1 |
| CCN(c1cccc(C)c1)C(C(=O)Nc1ccc(OC)cc1)c1cc2c(cc1[N+](=O)[O-])OCO2 (stereo not drawn) | 13.9 |
| COc1ccc(NC(=S)N(CCC(C)C)C2CCN(C(C)C)CC2)cc1Cl | -17 |
| CC1CCC/C(=N/Nc2ccc([N+](=O)[O-])cc2[N+](=O)[O-])C1 (stereo not drawn) | 6.43 |
| O=C(c1ccccc1)C1CCN(C(=O)Nc2ccccc2)CC1 | 9.03 |
| Cc1[nH]nc(N)c1N=Nc1ccc(Br)cc1 | 13.6 |
| O=C(N[C@@H](Cc1ccccc1)C(=O)OCc1ccccc1)c1nc[nH]c1C(=O)N1CCN(c2ccccc2)CC1 | 8.19 |
| O=S(=O)(/C=C/c1ccccc1)n1cnc2ccccc21 | 12.1 |
| CCOC(=O)CCNC(=O)Nc1ccc2nc(C)n(Cc3ccccc3Cl)c(=O)c2c1 | 8.49 |
| O=C(CN1C(=O)c2ccccc2C1=O)c1ccccc1 | 10.2 |
| Cc1[nH]c2ccc(C(=O)NCCCN3CCCC3)cc2c1C | 15.6 |
| COc1ccccc1CNC(=O)c1ccc(OC(F)F)c(OC)c1 | 2.84 |

| SMILES | hERG current change (%, negative = inhibition) at 1uM [%] |
| --- | --- |
| CCCS(=O)(=O)N1CCCC(C(=O)Oc2ccc(C)c(C)c2)C1 (stereo not drawn) | 13.3 |
| CCOC(=O)C1CCCN(c2c(N3CCN(C)CC3)c(=O)c2=O)C1 (stereo not drawn) | 10.2 |
| CCN(CC(=O)Nc1cc(Cl)ccc1C)C(=O)C1CC1 | 9.06 |
| CCOC(=O)c1[nH]c(C)c(C(=O)N2CCN(c3ccc(F)cc3)CC2)c1C | 1.16 |
| Cc1cc(C)nc(SCC(=O)NC2=NN=C(c3ccc(Br)cc3)CS2)n1 | -0.676 |
| COc1ccccc1/C=C/C=N/NC(=O)c1cccs1 | 16.1 |
| CC1=C(C#N)C(=O)NC(C)(C)C1 | 7.75 |
| CCCCC(=O)NNC(=S)NC(=O)c1ccc([N+](=O)[O-])cc1 | 17.6 |
| CCc1cc2c(=O)c(Oc3ccccc3F)c(C)oc2c(CN(C)C)c1O | 11.8 |
| NNC(=O)c1ccc([N+](=O)[O-])c(CS(=O)(=O)c2ccc(Cl)cc2)c1 | -0.315 |
| CCc1ccc(S(=O)(=O)N/N=C(/C)c2ccncc2)cc1 | -12.2 |
| CC(=O)Nc1ccc(S(=O)(=O)N2CCN=C2SCc2cccc(C)c2)cc1 | 2.58 |
| COCc1cc(C)c2c(N)c(C#N)sc2n1 | -1.84 |
| CCCOP(=O)(c1ccc(N(C)C)cc1)C(O)c1ccc(Br)cc1 (stereo not drawn) | 11.9 |
| COc1ccc(N2CCN(C3CCCN(Cc4cccc(OC)c4)C3)CC2)cc1 (stereo not drawn) | -27.1 |
| CC(C)Oc1ccc(C(=O)N2CCCC2C(=O)O)cc1 (stereo not drawn) | 15 |
| CCC(=O)N1CCN(c2ccc(NC(=O)c3ccc(N4CCCC4)c([N+](=O)[O-])c3)cc2)CC1 | 4.57 |
| COc1ccc(-c2csc(NC(=S)NC(=O)/C=C/c3ccccc3)n2)cc1Br | 19.1 |
| Cc1cc2c(nn1)CCc1c-2no[n+]1[O-] | 21.4 |

| SMILES | hERG current change (%, negative = inhibition) at 1uM [%] |
| --- | --- |
| CCOc1ccc(CCNC(=O)C2CCN(S(=O)(=O)N3CCCCC3)CC2)cc1OCC | 2.07 |
| COc1cccc(-c2ncc3ccccc3c2COC(=O)c2ccc(C(C)(C)C)cc2)c1 | 9.32 |
| O=C(c1cc(-c2ccc(Cl)c(Cl)c2)on1)N1CCCCC1 | -17 |
| Cc1csc(NC(=O)c2ccc(S(C)(=O)=O)cc2)n1 | -0.494 |
| Cc1ccccc1-n1c(Cn2c(=O)sc3ccccc32)nnc1SCC(=O)NCC1CCCO1 (stereo not drawn) | 4.61 |
| COc1ccc(N(C)C(=O)Cc2c(C(=O)O)[nH]c3ccccc23)c(OC)c1 | 10.9 |
| O=C(CSc1ccc(Cl)cc1)Nc1ccc(NC(=O)c2ccco2)cc1 | 6.86 |
| COc1cccc(C(=O)Nc2ccc3c(C)cc(=O)oc3c2)c1 | 15.5 |
| COCCNC(=O)c1cccc(OC2CCN(Cc3cccc(SC)c3)CC2)c1 | 4.6 |
| Cn1c(NNC(=O)c2c(F)cccc2F)cc(=O)n(C)c1=O | -4.74 |
| COc1ccccc1N1CCN(Cc2ccccc2Cl)CC1 | -0.135 |
| Oc1ccc2ccccc2c1C=Nc1ccccc1Br | 11.4 |
| Cc1[nH]nc2c1C(CC(C)C)C(C#N)=C(N)O2 (stereo not drawn) | 16.2 |
| O=C1N=C([O-])CN1/N=C/c1ccc(-c2ccc([N+](=O)[O-])cc2)o1.[Na+] | 5.23 |
| O=C1C(=O)N(c2ccccn2)C(c2ccc(Br)cc2)/C1=C(/O)c1ccc(Br)cc1 (stereo not drawn) | 6.76 |
| CC(O)CNC(=O)C1CCN(Cc2ccc(OCc3ccccc3)cc2)CC1.O=C(O)C(=O)O (stereo not drawn) | -10.4 |
| O=C(OCc1nc2ccccc2s1)c1ccco1 | 2.24 |
| COCCNC(=O)c1onc(CSc2cccc(Cl)c2)c1C(=O)O | 11.7 |
| Cc1ccc2c(c1)C(c1ccccc1)N(C(=O)c1c(F)cccc1Cl)CC(=O)N2 (stereo not drawn) | 10.4 |
